Out of some 350,000 compounds screened, about 31,000 (8.9%) were called active. Inconclusive means that the source gave no clear call. Such entries were picked first, then a sample of the others. Calls follow the shape of the dose curve; as a rule, active = well fitted inhibition curve with a large enough effect; inconclusive = small, poorly fitted or top-dose-only effect; inactive = no such curve, though single readings can be large or run the other way. Potencies beside an inconclusive call are fits to weak or partial responses and may not hold up.
target: Histone-lysine N-methyltransferase EHMT2 (Homo sapiens) (UniProt Q96KQ7); assay: qHTS Assay for Inhibitors of Histone Lysine Methyltransferase G9a; settings: G9a H3K9 monomethylation, AlphaScreen, 2 h; activity, negative = inhibition: at 59 µM (top of the series) unless noted; also: nearly all actives have a fitted effect of over 75% in size
Sequence of UniProt Q96KQ7 (Q96KQ7 whole entry, looked up): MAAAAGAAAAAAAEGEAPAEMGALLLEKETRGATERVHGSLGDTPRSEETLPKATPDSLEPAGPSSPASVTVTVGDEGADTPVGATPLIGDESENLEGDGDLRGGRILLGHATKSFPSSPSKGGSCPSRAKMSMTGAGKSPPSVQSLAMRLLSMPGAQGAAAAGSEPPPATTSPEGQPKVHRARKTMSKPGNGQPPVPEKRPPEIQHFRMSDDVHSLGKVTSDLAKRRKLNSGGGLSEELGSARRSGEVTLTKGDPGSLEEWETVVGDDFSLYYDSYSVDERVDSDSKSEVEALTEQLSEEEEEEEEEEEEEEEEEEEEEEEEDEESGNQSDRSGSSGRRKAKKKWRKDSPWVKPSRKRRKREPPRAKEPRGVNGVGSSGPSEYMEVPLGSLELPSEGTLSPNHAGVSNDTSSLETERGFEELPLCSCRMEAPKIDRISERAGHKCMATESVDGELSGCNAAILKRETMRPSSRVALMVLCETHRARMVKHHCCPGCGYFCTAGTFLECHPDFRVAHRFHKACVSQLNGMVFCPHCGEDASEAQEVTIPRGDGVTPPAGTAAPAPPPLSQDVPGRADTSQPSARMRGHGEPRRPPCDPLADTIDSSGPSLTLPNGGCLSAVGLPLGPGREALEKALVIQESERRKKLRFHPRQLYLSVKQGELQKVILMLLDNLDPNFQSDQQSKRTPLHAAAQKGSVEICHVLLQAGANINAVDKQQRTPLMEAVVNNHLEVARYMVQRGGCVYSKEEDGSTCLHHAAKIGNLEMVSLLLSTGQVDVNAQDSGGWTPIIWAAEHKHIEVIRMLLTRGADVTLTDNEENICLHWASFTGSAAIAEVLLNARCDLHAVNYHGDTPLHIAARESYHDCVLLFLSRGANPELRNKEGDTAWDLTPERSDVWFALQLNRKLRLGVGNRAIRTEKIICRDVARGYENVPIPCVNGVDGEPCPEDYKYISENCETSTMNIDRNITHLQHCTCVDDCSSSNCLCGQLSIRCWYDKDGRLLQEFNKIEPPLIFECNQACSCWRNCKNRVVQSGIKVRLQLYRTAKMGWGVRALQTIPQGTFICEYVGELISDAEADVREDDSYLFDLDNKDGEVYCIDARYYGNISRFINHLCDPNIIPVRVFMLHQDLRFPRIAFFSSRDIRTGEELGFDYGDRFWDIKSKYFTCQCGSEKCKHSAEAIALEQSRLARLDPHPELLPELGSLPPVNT
Outline: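 Readings reflect AlphaScreen signal from monomethyl-H3K9 antibody detection. HMT at 20 nM; substrate b-H3K9 500 nM; cofactor SAM 20 uM; 2 h RT reaction; compounds tested as titrations in qHTS with 15 min preincubation.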
% is scaled to controls: 0 for no effect and ±100 for the full control effect; potency is read from the fitted curve at half-maximal effect; tags tell the direction and shape of the fitted curve.

Structure (SMILES)	Potency	activity, negative = inhibition
O=C(CSc1nnc(Cc2cc(=O)[nH]c(=O)[nH]2)n1-c1ccc(Cl)cc1)NC1CCCC1	active: 39.8 µM	
CC(NC(=S)Nc1cccc(F)c1)C(c1cccs1)N1CCOCC1 (configuration not stated)		inactive: 5.2% [at 102 µM]
O=C(Nc1cc(F)ccc1F)c1ccc2c(c1)nnn2C1CCCC1		inactive: -2.62%
CCOC(=O)c1ccccc1NC(=O)N1CCCN(S(=O)(=O)c2ccc3c(ccn3CC)c2)CC1		inactive: -4.67%
CCNc1nc(C(=O)O)nc(N2CCOCC2)n1	active: 3.98 µM	
O=C(CCCc1ccccc1)N1CCc2ccccc21		inactive: 130% [at 102 µM]
C/C(=N\NC(=O)c1ccc(O)cc1)c1ccc2c(c1)Nc1ccccc1S2	active: 15.8 µM	
O=C(Nc1ccc2c(c1)nc1n2CCN(C2CCCCC2)C1)NC1CCCCC1	inconclusive: 4.47 µM [inhibitor, single point]	
COc1ccc(-c2noc(CSc3nnc(-c4ccccc4)n3-c3ccc(F)cc3)n2)c(OC)c1		inactive: -7.39%
O=C(Nc1ccccc1N1CCCC1)c1cccnc1	inconclusive: 28.2 µM [inhibitor, single point]	
COc1ccc(C[C@H]2CN3C(=NC[C@@H]3C(C)C)N2CCNC(=O)c2ccc(C)c(Br)c2)cc1		inconclusive: -73% [inhibitor]
CCOc1cc(C2NC(=O)N(C)C(C)=C2C(=O)OC)cc(Br)c1O (configuration not stated)		inconclusive: -66.2% [inhibitor]
COc1ccc(-c2cc(OC(=O)c3ccc(F)cc3)c3c(C)oc(C)c3c(=O)c2)cc1OC	inconclusive: 28.2 µM [inhibitor, partial curve]	
C=CCOc1ccc(C2NC(=S)NC(c3ccccc3)=C2C(C)=O)cc1OC (configuration not stated)	inconclusive: 89.1 µM [inhibitor, single point]	
Cc1cc(C)cc(OCC(=O)NNC(=O)c2ccccn2)c1	inconclusive: 0.891 µM [inhibitor, single point]	
O=C(O)c1cncc(Br)c1	inconclusive: 89.1 µM [inhibitor, partial curve, poor fit]	
Cc1ccc2cccc(NC3OC(=O)c4ccccc43)c2n1 (configuration not stated)	inconclusive: 79.4 µM [inhibitor, single point]	
Cc1ccc(Cl)cc1OCC(=O)NCCOC(=O)Nc1sc(=S)n(C)c1C	inconclusive: 22.4 µM [inhibitor, single point]	
CCN1/C(=C/C(=O)c2ccco2)Sc2ccccc21	inconclusive: 20 µM [inhibitor, partial curve]	

Structure (SMILES)	Potency	activity, negative = inhibition
Cc1cc(OCCn2ccnc2)cc(C(C)C)c1	active: 11.2 µM	
c1ccc(-c2oc3ncnc(NCCN4CCOCC4)c3c2-c2ccccc2)cc1		inconclusive: -87.8% [inhibitor]
CC(=O)c1ccc(N2CCN(S(=O)(=O)c3ccc4c(c3)NC(=O)CC(=O)N4)CC2)cc1		inactive: 24.4% [at 102 µM]
C/C(CCc1oc2ccc(Cl)cc2c1-c1ccc(C)o1)=N\O	inconclusive: 31.6 µM [inhibitor, single point]	
Cc1cc(C(=O)CN2C(=O)NC3(CCCCC3)C2=O)c(C)n1Cc1ccc2c(c1)OCO2	inconclusive: 44.7 µM [inhibitor, partial curve]	
O=C(O)C1C2C=CC(C2)C1C(=O)N1CCc2ccccc21 (configuration not stated)		inactive: 0.26% [at 12.7 µM]
Cc1ccc2nc(N/C(=N/S(=O)(=O)c3cccs3)c3ccccc3Cl)sc2c1	inconclusive: 50.1 µM [inhibitor, partial curve, poor fit]	
O=C(N/N=C/c1ccncc1)c1cccc(NC(=O)c2ccc(Cl)cc2)c1	active: 15.8 µM	
Cc1[nH]c2ccccc2c1C(C[N+](=O)[O-])c1cccs1 (configuration not stated)	inconclusive: 79.4 µM [inhibitor, single point]	
C/C(=N\Nc1cccc2cccnc12)c1ccccn1	active: 14.1 µM	
Cc1ccccc1C(=O)NC1CC2CCC(C1)N2Cc1ccccc1 (configuration not stated)	inconclusive: 89.1 µM [inhibitor, partial curve, poor fit]	
CN(C)S(=O)(=O)n1cc(/C=C(\NC(=O)c2ccccc2F)C(=O)N2CCOCC2)c2ccccc21		inactive: -9.35% [at 102 µM]
Cc1ccc(Cl)cc1NC(=O)C(NS(=O)(=O)c1cccc2nsnc12)c1ccccc1 (configuration not stated)	inconclusive: 20 µM [inhibitor, single point]	
COc1ccc(NC(=O)C2CCCN(S(=O)(=O)c3ccc(Cl)cc3)C2)cc1 (configuration not stated)		inactive: 1.41%
COc1ccc(NC(=O)CC2CC3CCC2C3)cn1 (configuration not stated)		inactive: 5.41% [at 102 µM]
O=C(Nc1cccc(S(=O)(=O)N2CCCCC2)c1)C1CCCN1S(=O)(=O)c1ccccc1F (configuration not stated)		inactive: -14.3%
COc1ccc(CCNC(=O)/C=C/C(=O)O)cc1	inconclusive: 28.2 µM [inhibitor, single point]	
CCOc1ccccc1N1CCN(C(=O)c2c(C)noc2C)CC1		inactive: -13.4%
